Laboratory results published in PubChem BioAssay AID686979 (National Center for Advancing Translational Sciences (NCATS), 2013).
The campaign covered roughly 420,000 compounds. About 50,000 (12%) were called active. Inconclusive means that the source gave no clear call. Such entries were picked first, then a sample of the others. The call rests on the fitted dose curve; in most records, active means well fitted inhibition curve with a large enough effect; inconclusive means small, poorly fitted or top-dose-only effect; inactive means flat fitted curve, though single readings scatter. Potencies of inconclusive entries are left out as doubtful fits.

Experiment: qHTS for Inhibitors of human tyrosyl-DNA phosphodiesterase 1 (TDP1): qHTS in cells in presence of CPT; further: nearly all actives have a fitted effect of over 55% in size
Settings: chicken DT40 Tdp1-/-;hTDP1 cells + 20 nM CPT, ATP luminescence, 48 h; series mostly up to 46.2 µM
In short: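 Chicken DT40 Tdp1-/- cells complemented with human TDP1, 400 cells/well, exposed to compounds plus 20 nM camptothecin for at least 48 h at 37 C; viability read as ATP content by CellTiter-Glo luminescence.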
Potency means the concentration at half of the fitted maximal effect; tags describe the fitted curve by direction and shape.

SMILES	Potency
CN(Cc1ccc(F)cc1)C(=O)CNC(=O)c1ccc2c(c1)OCO2	inactive
CCCCCCCCNCCS(=O)(=O)NCc1ccc(OC)cc1	inconclusive [inhibitor, single point]
O=C(CSc1nc2ccccc2s1)Nc1cc(S(=O)(=O)N2CCOCC2)ccc1Cl	inconclusive [inhibitor, single point]
COc1ccc(SCc2noc(C(=O)NC(C)C)c2C(=O)O)cc1	inactive
CCOC(=O)N1CCN(C(=O)c2cccc(N3C(=O)NC4CC3(C)Oc3ccc(Cl)cc34)c2)CC1 (stereo not given)	inconclusive [inhibitor, single point]
O=C(c1ccco1)N1CCN(c2nc(C3CC3)nc3sc4c(c23)CCCC4)CC1	active: 25.9 µM
CCCCCn1c(=O)[nH]c2cc(C(=O)NCCN(CC)CC)ccc2c1=O	active: 9.2 µM
CCN(CC1CCCO1)C(=O)C1CCN(C2CCN(Cc3ccccc3C)CC2)CC1 (stereo not given)	inconclusive [inhibitor, single point]
CCC(C)N1C(=O)N(c2cccc(Cl)c2)C(C)(O)CC1(C)C (stereo not given)	inconclusive [inhibitor, single point]
CCN(C(=O)CSc1nc2ccccc2n1CC(=O)N(C)C1CCCCC1)c1ccccc1	inconclusive [inhibitor, single point]
Cc1cccc(-c2noc(CN(C(=O)/C=C/c3ccccc3Cl)C(C)C)n2)c1	active: 18.4 µM
CCCS(=O)(=O)N1CCC(n2c(C)nc3cccnc32)CC1	active: 18.4 µM
Oc1oc(-c2ccccc2)nc1C=Nc1cccc2ccccc12	inconclusive [inhibitor, partial curve, poor fit]
Cc1nn(-c2ccc(F)cc2)c(C)c1CN1CCN(Cc2ccccc2)C(CCO)C1 (stereo not given)	inconclusive [inhibitor, partial curve]
CN1CCC(OC2c3ccccc3CCc3ccccc32)CC1	inconclusive [inhibitor, single point]
COc1ccccc1CNC(=O)c1cn(C)c(=O)c2cc(OC)c(OC)cc12	active: 18.4 µM
Cc1ccc(C(=O)N/C(=C/C=C\c2ccccc2)C(=O)NCc2ccco2)cc1	inconclusive [inhibitor, single point]
Cc1ccccc1C(=O)Nc1ccc(Br)c(C)n1	inconclusive [inhibitor, partial curve]
Cc1ccnc(N2CCC(C(=O)NNC(=O)c3ccncc3)CC2)n1	inactive
Cc1ccc2oc(C(=O)Nc3ccc(S(=O)(=O)N4CCCCC4C)cc3)cc(=O)c2c1 (stereo not given)	inconclusive [inhibitor, single point]
O=C(c1ccoc1)N1CCN(c2cc(-c3cccc(F)c3)nc3cc(-c4cccc(Cl)c4)nn23)CC1	active: 7.31 µM
S=C(NCc1ccco1)NCc1ccco1	inconclusive [inhibitor, single point]
Cc1nn(-c2ccccn2)c2nc(-c3cccs3)cc(C(=O)N3CCOCC3)c12	inconclusive [inhibitor, single point]
Cc1cc(N)nc2nc(C(F)(F)F)nn12	inactive

SMILES	Potency
CC1=CC2=NC(=O)/C(=C\c3cc(C)n(-c4ccccc4F)c3C)C(=N)N2O1	inactive
CCOC(=O)c1nn(-c2ccc(F)cc2)c(=O)cc1OCC(=O)N1CCN(c2ccccc2)CC1	inconclusive [inhibitor, single point]
CCc1ccc(C(=O)c2cn(CC(=O)Nc3cc(OC)ccc3OC)c3ccc(Cl)cc3c2=O)cc1	inconclusive [inhibitor, single point]
OC[C@@H]1CN(Cc2ccc(F)cc2)C[C@H](n2cnc3c(Nc4ccccc4)ncnc32)O1	inconclusive [inhibitor, single point]
COc1cc(OC)cc(C(=O)NC(C(=O)NNC(=O)c2ccc(C)cc2)C(C)C)c1 (stereo not given)	inactive
CCSc1nnc(NC(=O)C(C(F)(F)F)C(F)(F)F)s1	inconclusive [inhibitor, single point]
Cc1ccc(S(=O)(=O)N(C)CCCC(=O)NCc2ccc3c(c2)OCO3)cc1	inactive
C/C(=N\N=C1\NC(=O)C(CC(=O)Nc2ccc(C)c(Cl)c2)S1)C(C)(C)C (stereo not given)	inactive
COc1ccccc1NC(=O)CSc1cn(CC(=O)N2CCCC2)c2ccccc12	inconclusive [inhibitor, single point]
CCNc1ncc2nc(-c3ccccc3)c(=O)n(CCc3ccccc3)c2n1	inactive
COC(=O)c1cccc(NC(=O)CSc2nnc(C)n2Cc2ccccc2)c1	inactive
OCCN(Cc1nc(-c2ccc3c(c2)OCO3)no1)Cc1cccs1	inconclusive [inhibitor, single point]
Cc1cc(C(=O)N2CCC2(C)C(=O)NS(=O)(=O)c2cccc(Cl)c2)nn1C (stereo not given)	inactive
CC(=O)N1CCc2c(sc3c2c(=O)n(-c2ccccc2Cl)c(=O)n3Cc2cccc(C)c2)C1	inconclusive [inhibitor, single point]
C=C(C)COc1ccc(-c2[nH]ncc2Oc2ccccc2OCC)c(O)c1	inconclusive [inhibitor, single point]
CC(C)Nc1nc(Cl)nc(NN(C)c2nc(N(C)C)nc(N(C)C)n2)n1	inactive
CCOC(=O)c1c(C)[nH]c(C(C)=O)c1C	inactive
COc1ccc(-c2nnc(NC(=O)c3ccc(S(=O)(=O)N(C)CC4CCCO4)cc3)o2)c(OC)c1 (stereo not given)	inconclusive [inhibitor, single point]
CCOC(=O)C1=CN(Cc2ccco2)S(=O)(=O)N(CC)C1c1ccccc1 (stereo not given)	inconclusive [inhibitor, single point]
O=C(Nc1cccc(Cl)c1)Nc1cccc(Cl)c1	active: 14.6 µM
CC(C)[C@H](NC(N)=O)C(=O)Nc1cccc(S(=O)(=O)NC2=NCCCCC2)c1	inactive
COc1ccccc1Cc1c(-c2ccc(OC)c(OC)c2)nc2c(C)cc(Br)cn12	inconclusive [inhibitor, single point]
CCOC(=O)N1CCN(Cc2nc3cc(NC(=O)c4ccccc4Cl)ccc3n2C(C)C)CC1	active: 1.46 µM
COc1ccc2nc(NC(=O)C3CCCN(S(=O)(=O)c4cccc5nonc45)C3)sc2c1 (stereo not given)	inconclusive [inhibitor, single point]

SMILES	Potency
CC(C)N(C(=O)COC(=O)c1ccc(Cl)s1)c1ccccc1	inconclusive [inhibitor, single point]
O=C(NCc1cccnc1)c1cc(C2CCCCN2C(=O)CCc2ccccc2)on1 (stereo not given)	inconclusive [inhibitor, partial curve, poor fit]
C=CCC[C@@H](Cc1ccc(F)cc1)C(=O)OC[C@@H](Cc1ccccc1)NC(=O)[C@H](CC=C)CC(=O)NCCO	active: 9.2 µM
CCOC(=O)c1ccc(NC(=O)N2CC3CCCN3c3ccccc32)cc1 (stereo not given)	inconclusive [inhibitor, single point]
CN(Cc1ccco1)c1ncnc2ccc(-c3ccccc3C#N)cc12	inconclusive [inhibitor, single point]
COc1ccc(-n2c(C)c3c(OC)cccc(=O)c3c2C)cc1	inconclusive [inhibitor, single point]
O=C(Nc1ccc(S(=O)(=O)N2CCCCCC2)cc1)c1ccc(Br)o1	inconclusive [inhibitor, single point]
CCC1CCCCN1C(=O)CSc1nnc(-c2ccc(OC)c(OC)c2)o1 (stereo not given)	inconclusive [inhibitor, single point]
Clc1ccc(Nc2c3c(nc4ncnn24)CCC3)cc1	inconclusive [inhibitor, single point]
CCC(=O)N1CCc2cc(S(=O)(=O)NCc3ccc(C)cc3)ccc21	active: 23.1 µM
CC(=O)N(c1ccccc1)C(C(=O)c1ccccc1)c1ccccc1 (stereo not given)	inconclusive [inhibitor, single point]
CC1CCCN(C(=S)SCC(=O)c2cc(Br)cc(Br)c2O)C1 (stereo not given)	active: 4.11 µM
N#Cc1cccc(NC(=O)N2CC3(CCN(C(=O)c4cnccn4)CC3)C2)c1	inactive
Cc1cc(Nc2nc3ccccc3nc2Cl)n(-c2ccc([N+](=O)[O-])cc2)n1	active: 18.4 µM
COc1cccc(N2CCN(C(=O)C3CCCN(S(=O)(=O)c4cnc[nH]4)C3)CC2)c1 (stereo not given)	inconclusive [inhibitor, single point]
CC1=CC2=C(OC1N(C)C)c1cccc3cccc(c13)C2=O (stereo not given)	inactive
COC(=O)N(NC(=O)C(O)(C(C)C)C(C)C)c1ccccc1	inactive
O=C(N/N=C1\C(=O)c2cccc3cccc1c23)c1ccc(O)cc1	inconclusive [inhibitor, single point]
O=C(NCCN1CCC(n2c(=O)[nH]c3ccccc32)CC1)c1ccc(OC(F)(F)F)cc1	inconclusive [inhibitor, single point]
CC(C)(C)OC(=O)N1CCCN(C(c2cc3ccccc3o2)c2nnnn2C(C)(C)C)CC1 (stereo not given)	inconclusive [inhibitor, single point]
O=C(N/N=C/c1ccc(OC(=O)c2ccccc2Cl)cc1)c1ccc(O)cc1	inconclusive [inhibitor, single point]
COc1ccc(Cl)cc1Nc1ccc2cc(S(=O)(=O)N3CCCCC3)ccc2n1	inconclusive [inhibitor, single point]
